Reference: article PMC4705661
No constants are given. Whether binding was seen depends on the method and setting. Some results given as binding are weak or reduced against the parent protein; the word gives no strength.

By UniProt entry, the sequences of proteins in these tests, tags left out. Where a name states a change or a piece, a line headed by the entry shows the natural chain unless it says otherwise.
UniProt P37542: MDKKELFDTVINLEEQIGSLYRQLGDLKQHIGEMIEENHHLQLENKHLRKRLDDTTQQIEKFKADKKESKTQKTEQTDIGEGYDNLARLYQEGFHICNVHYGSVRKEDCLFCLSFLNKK

Legend:
[1] = target: YabA F94Y, BD fusion (B. subtilis) (UniProt P37542); test: two-hybrid; BD-YabA wild type or mutants (pGBDU) mated with AD-DnaA, AD-DnaN or AD-YabA (pGAD); growth on -LUH and -LUA
[2] = target: YabA H95G, BD fusion (B. subtilis) (UniProt P37542); test: as above
[3] = target: YabA H95I, BD fusion (B. subtilis) (UniProt P37542); test: as above
[4] = target: YabA H95L, BD fusion (B. subtilis) (UniProt P37542); test: as above
[5] = target: YabA full length, GAL4 fusion (yeast two-hybrid) (B. subtilis) (UniProt P37542); test: as above
[6] = target: YabA^70–119 (B. subtilis) (UniProt P37542); test: SEC-MALS; YabA1-58 and YabA70-119 loaded at 5 mg.ml^-1 (100 μl) on a Superdex 75 column; 50 mM Tris pH 8.0, 150 mM NaCl; both purified

| Substance | binding [1] | binding [2] | binding [3] | binding [4] | binding [5] | binding [6] |
| --- | --- | --- | --- | --- | --- | --- |
| YabA full length, GAL4 fusion (yeast two-hybrid) (from UniProt P37542 1-119) | binds | binds | binds | binds | binds | – |
| YabA^70–119 (from UniProt P37542 70-119) (domain or fragment) | – | – | – | – | – | no binding (tested: 5 mg.ml^−1 loaded) |
